The IC50 comes from the fitted curve, where viability falls to half of the control; where the fit passes the top or lowest dose, that dose stands as a limit. AUC, from the same fit, is the share of area under the viability curve across the 256-fold dose range: 1 means no effect, lower means more sensitive. For some of these results: A top dose marked as inferred comes from the curve model; the source does not state it. For some of these results: Where an entry number is given, a second screen of the drug exists; the two often differ.
Legend:
Experiment in all cases: Viability of human cancer cell lines after 72 h of drug (GDSC screen)
AZD-0530 = compound: CN1CCN(CCOc2cc(OC3CCOCC3)c3c(Nc4c(Cl)ccc5c4OCO5)ncnc3c2)CC1 [AZD-0530]; details: top dose 2 µM
Experimental: (§1)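 Human cancer cell lines in 384-well plates, medium with 10% serum, drug for 72 h over a 256-fold dose range (nine 2-fold or five 4-fold steps up to the top dose). Adherent lines were fixed and stained with the nucleic acid dye Syto60, suspension lines read with resazurin; signal relative to control wells, capped at 0 and 100%. One two-parameter sigmoid per drug and line, fitted in a mixed model over all curves with the slope shared within a line.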

TPCA-1 = compound: NC(=O)Nc1sc(-c2ccc(F)cc2)cc1C(N)=O [TPCA-1]; details: top dose 20 µM
Experimental: as §1

PLX4720 = compound: CCCS(=O)(=O)Nc1ccc(F)c(C(=O)c2c[nH]c3ncc(Cl)cc23)c1F [PLX4720]; details: top dose 10 µM
Experimental: as §1

Epothilone B = compound: C/C(=C\c1csc(C)n1)[C@@H]1C[C@@H]2O[C@]2(C)CCC[C@H](C)[C@H](O)[C@@H](C)C(=O)C(C)(C)[C@@H](O)CC(=O)O1 [Epothilone B]; details: top dose 0.032 µM; top dose inferred
Experimental: as §1

Y-39983 = compound: C[C@@H](N)c1ccc(C(=O)Nc2ccnc3[nH]ccc23)cc1 [Y-39983]; details: top dose 20 µM; top dose inferred
Experimental: as §1

PHA-793887 = compound: CC(C)CC(=O)Nc1n[nH]c2c1CN(C(=O)C1CCN(C)CC1)C2(C)C [PHA-793887]; details: top dose 10.24 µM
Experimental: as §1

Pyrimethamine = compound: CCc1nc(N)nc(N)c1-c1ccc(Cl)cc1 [Pyrimethamine]; details: top dose 20 µM; top dose inferred
Experimental: as §1

[1] = screen: GDSC drug entry 1371, top dose inferred

Row | Cell Line | AUC (AZD-0530) | IC50 (AZD-0530) [µM] | AUC (TPCA-1) | IC50 (TPCA-1) [µM] | AUC (PLX4720; screen: GDSC drug entry 1036) | IC50 (PLX4720; screen: GDSC drug entry 1036) [µM] | AUC (PLX4720; [1]) | IC50 (PLX4720; [1]) [µM] | AUC (Epothilone B) | IC50 (Epothilone B) [µM] | AUC (Y-39983) | IC50 (Y-39983) [µM] | AUC (PHA-793887) | IC50 (PHA-793887) [µM] | AUC (Pyrimethamine) | IC50 (Pyrimethamine) [µM]
1 | Mo-T (hairy cell leukaemia, suspension) | 0.986 | > 2 | 0.523 | 1.44 | 0.982 | > 10 | 0.966 | > 10 | 0.976 | > 0.032 | 0.988 | > 20 | 0.357 | 0.256 | 0.988 | > 20
2 | NALM-6 (B-cell leukaemia, suspension) | 0.991 | > 2 | 0.372 | 0.593 | 0.976 | > 10 | 0.977 | > 10 | 0.524 | 0.00229 | 0.487 | 1.16 | 0.16 | 0.0753 | 0.841 | 10.7
3 | NB5 (neuroblastoma, adherent) | 0.871 | 1.93 | 0.852 | 15.8 | 0.986 | > 10 | 0.959 | > 10 | 0.752 | 0.0108 | 0.985 | > 20 | 0.953 | > 10.2 | 0.982 | > 20
4 | NB6 (neuroblastoma, adherent) | 0.956 | > 2 | 0.693 | 4.97 | 0.965 | > 10 |  |  | 0.75 | 0.0126 | 0.947 | > 20 | 0.874 | > 10.2 | 0.976 | > 20
5 | NB7 (neuroblastoma, adherent) | 0.926 | > 2 | 0.766 | 7.67 | 0.986 | > 10 | 0.883 | > 10 | 0.717 | 0.00849 | 0.908 | > 20 | 0.53 | 0.777 | 0.927 | > 20
6 | NB10 (neuroblastoma, adherent) | 0.934 | > 2 | 0.772 | 7.56 | 0.986 | > 10 | 0.987 | > 10 | 0.746 | 0.00993 | 0.954 | > 20 | 0.957 | > 10.2 | 0.988 | > 20
7 | NB13 (neuroblastoma, adherent) | 0.94 | > 2 | 0.729 | 5.12 | 0.801 | 4.23 | 0.982 | > 10 | 0.332 | 0.000726 | 0.87 | 15.2 | 0.95 | > 10.2 | 0.982 | > 20
8 | NB69 (neuroblastoma, adherent) | 0.833 | 1.1 | 0.514 | 1.36 | 0.99 | > 10 |  |  | 0.758 | 0.00993 | 0.897 | 19.9 | 0.921 | > 10.2 | 0.981 | > 20
9 | NB(TU)1-10 (neuroblastoma, adherent) | 0.968 | > 2 | 0.659 | 3.24 | 0.97 | > 10 | 0.993 | > 10 | 0.559 | 0.00283 | 0.862 | 13.5 | 0.98 | > 10.2 | 0.938 | > 20
10 | NB-4 (acute myeloid leukaemia, suspension) | 0.991 | > 2 | 0.439 | 0.877 | 0.975 | > 10 | 0.984 | > 10 | 0.397 | 0.00111 | 0.836 | 9.99 | 0.121 | 0.056 | 0.857 | 11.8
11 | NCI-H64 (small cell lung carcinoma, suspension) | 0.996 | > 2 | 0.906 | 14.5 | 0.992 | > 10 |  |  | 0.747 | 0.00809 | 0.901 | 14 | 0.609 | 1.18 | 0.993 | > 20
12 | NCI-H69 (small cell lung carcinoma, suspension) | 0.982 | > 2 | 0.979 | > 20 | 0.973 | > 10 | 0.967 | > 10 | 0.803 | 0.0181 | 0.986 | > 20 | 0.81 | 6.16 | 0.959 | > 20
13 | NCI-H82 (small cell lung carcinoma, suspension) | 0.987 | > 2 | 0.822 | 10.9 | 0.87 | 8.45 | 0.962 | > 10 | 0.876 | 0.0288 | 0.943 | > 20 | 0.796 | 4.52 | 0.797 | 8.88
14 | NCI-H211 (small cell lung carcinoma, adherent) | 0.97 | > 2 | 0.733 | 5.66 | 0.98 | > 10 | 0.963 | > 10 | 0.495 | 0.00193 | 0.875 | 18.7 | 0.642 | 1.56 | 0.863 | 16.5
15 | NCI-H226 (lung squamous cell carcinoma, adherent) | 0.979 | > 2 | 0.665 | 3.69 | 0.987 | > 10 | 0.983 | > 10 | 0.83 | 0.0214 | 0.847 | 15.8 | 0.866 | 9.91 | 0.98 | > 20
16 | NCI-H322M (lung adenocarcinoma, suspension) | 0.987 | > 2 | 0.928 | > 20 | 0.888 | > 10 | 0.957 | > 10 | 0.987 | > 0.032 | 0.983 | > 20 | 0.945 | > 10.2 | 0.953 | > 20
